# Screen size: about 340,000 compounds; about 6,900 (2%) were called active. Cut-off read from the data, not from the text of the source: active = inhibition above about 30%; inactive = below that, where a call was filed. The list shows a part of the results, in another mix than the full data. Entries without a call were filed so in the source.
# Molecular target: D(2) dopamine receptor (Homo sapiens) (UniProt P14416)
# Test: HTS Assay for Allosteric Antagonists of the Human D2 Dopamine Receptor: Primary Screen for Antagonists; note: 0% is about no effect
# Conditions: HEK293 TREx D2 cells, calcium flux, dopamine EC80; at 10 µM; stronger effect = higher value
# In short: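 Measurement of antagonist activity uses fluorescent calcium dye in inducible HEK293 T-REx D2 cells: 10 s baseline, compound addition with 180 s read, EC80 dopamine addition with a further 180 s read.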
# UniProt P14416, sequence (P14416 whole entry, looked up): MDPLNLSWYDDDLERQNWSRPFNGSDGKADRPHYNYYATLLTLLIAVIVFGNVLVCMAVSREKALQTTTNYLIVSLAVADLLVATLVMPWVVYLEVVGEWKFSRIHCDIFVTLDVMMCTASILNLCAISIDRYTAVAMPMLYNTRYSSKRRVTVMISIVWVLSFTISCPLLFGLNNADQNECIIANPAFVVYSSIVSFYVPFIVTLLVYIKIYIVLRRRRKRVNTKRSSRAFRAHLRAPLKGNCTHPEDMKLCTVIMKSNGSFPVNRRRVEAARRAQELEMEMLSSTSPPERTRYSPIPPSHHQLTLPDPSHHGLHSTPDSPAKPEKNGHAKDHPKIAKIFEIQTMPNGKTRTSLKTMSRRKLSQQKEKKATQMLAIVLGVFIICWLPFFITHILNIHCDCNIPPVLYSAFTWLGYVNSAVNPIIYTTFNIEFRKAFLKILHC
row,SMILES,inhibition
1,Cc1cc2c(cc1S(=O)(=O)NCc1ccc(F)cc1)OCC(=O)N2,10.2%
2,COc1ccc(NC(=O)CN2C(=O)COc3ccc(S(=O)(=O)NC4CCCC4)cc32)cc1OC,-6.62%
3,CC(C)Oc1ccc(S(=O)(=O)N2CCCCC2)cc1NC(=O)CN1CCCC1c1cccs1 (stereo not drawn),active: 33%
4,COc1ccc(OCC(=O)N2CCN(C(=O)c3ccc(OC)c(OC)c3)CC2)cc1,-5.73%
5,COc1cn(CC(=O)Nc2ccc(C)cc2)c(CN2CCCCC2)cc1=O,-28.5%
6,Cc1cccc(C)c1NC(=O)CCSCCc1ccccn1,-2.44%
7,CC(=O)N1CCc2cc(Br)cc(S(=O)(=O)CCC(=O)NCc3ccc(F)cc3)c21,-11.1%
8,O=C(CCNS(=O)(=O)c1ccc2c(c1)CCN2C(=O)C1CC1)Nc1ccc(Cl)cc1,-2.43%
9,Cc1c(NS(=O)(=O)c2ccc(C(C)(C)C)cc2)c(=O)n(-c2ccccc2)n1C,0.9%
10,Cc1ccc2occ(CC(=O)Nc3c(C)cccc3C)c2c1,21.7%
11,Cc1cc(C)cc(NCc2nnc3n2CCCCC3)c1,-4.05%
12,CCCN(C(=O)c1ccc2c(=O)n3c(nc2c1)CCCCC3)c1cccc(Cl)c1,-3.65%
13,O=C(NCCc1nc2ccccc2n1Cc1ccc(Cl)cc1)c1ccccc1,-3.06%
14,CCOC(=O)c1ccccc1NC(=O)c1sc2nc(-c3ccc(F)cc3)cn2c1C,-26.2%
15,Cc1nnc(NC(=O)CSc2nc3c([nH]c4ccccc43)c(=O)n2-c2cccc(Cl)c2)s1,10.9%
16,COc1ccc(C)cc1NC(=O)NCCn1nnc2cc(S(=O)(=O)N(C)C)ccc21,5.45%
17,Cc1ccc(C(=O)OCc2cc(=O)n3nc(CC(C)C)sc3n2)cc1,-23.3%
18,COc1ccc(CCNC(=O)c2cnc3sc(N4CCCCCC4)nn3c2=O)cc1,4.32%
19,CCC1CN(C(=O)N2CCC(C(=O)NCc3cccs3)CC2)c2ccccc2O1 (stereo not drawn),5.99%
20,Cc1ccc(N2C(=O)CSC23C(=O)N(CC(=O)NCCc2ccccc2)c2ccccc23)cc1 (stereo not drawn),-3.62%
21,Cc1ccc(NC(=O)c2ccc(-c3ccccc3)s2)cc1,3.48%
22,COc1cccc(CNCc2c(C(=O)O)n(Cc3ccc(C)cc3)c3cc(C)ccc23)c1OC,-8.31%
23,O=C(Nc1ccc2oc(-c3ccc(Br)cc3)nc2c1)c1cc2ccccc2o1,-5.89%
24,CCC1CCCCN1CCCNC(=O)c1ccc2c(c1)N(Cc1cccc(Cl)c1)C(=O)c1ccccc1S2(=O)=O (stereo not drawn),-2.42%
25,CC(=O)c1ccc(NC(=O)c2sc(-n3nc(C)c(Cc4ccc5c(c4)OCO5)c3C)nc2C)cc1,16.8%

row,SMILES,inhibition
1,COc1ccc(Cl)cc1NC(=O)CSc1nnc(COc2ccccc2)n1N,active: 53.7%
2,O=c1oc2c(CN3CCOCC3)c(O)ccc2cc1-c1ccccc1,-5.68%
3,COc1ccc(N2CCN(C(=O)c3noc4c3CCCCC4)CC2)cc1,1.5%
4,COc1ccc(C2CC(=O)Nc3c2c(C)nn3-c2nc(C)cc(C)n2)c(OC)c1OC (stereo not drawn),4.17%
5,COC(=O)c1c(NC(=O)COc2ccc(C(C)C)cc2)sc2c1CCCC2,11%
6,CCc1cccc(NC(=O)CCn2nc(C)cc2C)c1,-13.5%
7,COc1ccccc1CCNC(=O)C1(c2cccs2)CCOCC1,-15.4%
8,Cc1cccc(CSc2nc3ccncc3n2CC(=O)N(C)C2CCCCC2)c1,3%
9,CCCS(=O)(=O)Nc1cccc(-c2cn3ccsc3n2)c1,6.88%
10,COc1ccc(NC(=O)Cn2c(=O)oc3cc(S(=O)(=O)N4CCCC4)ccc32)cc1OC,4.29%
11,COc1ccc(CCNC(=O)c2ccc3nc(CCc4ccccc4)oc3c2)cc1OC,-7.94%
12,COc1ccc(NC(=O)Cn2cnc3c(nc4n3CCCCC4)c2=O)cc1Cl,4.64%
13,COc1ccc(OC)c(NC(=O)c2nnn(CC(=O)Nc3ccc(C(C)C)cc3)c2N)c1,7.33%
14,Cc1cccc(N2CCN(C(=O)Cc3c(C(=O)O)c(C)cn3C)CC2C)c1 (stereo not drawn),3.89%
15,COc1cc(CN2CCN(c3cccc(C)c3C)CC2)cc(OC)c1O,active: 41.6%
16,COc1ccc(N2CCN(C(=O)C3CCCN(S(=O)(=O)c4ccc5c(c4)oc(=O)n5C)C3)CC2)cc1 (stereo not drawn),-5.4%
17,O=C(COc1ccc(Br)cc1Cl)NC1CCN(Cc2ccccc2)CC1,active: 67%
18,COc1ccc(C2C(C(=O)NCc3ccco3)CCC(=O)N2c2ccc(OC)cc2)cc1 (stereo not drawn),active: 38.3%
19,CC(C)c1ccc(CNCCSc2nnnn2-c2ccccc2)cc1,20.4%
20,CCNC(=O)C1CCCN(c2nn3cc(-c4ccc(C)cc4)nc3s2)C1 (stereo not drawn),-1.88%
21,Cc1ccc(C)c(NS(=O)(=O)c2ccc(OCC(=O)NCc3cccnc3)cc2)c1,active: 42.3%
22,CCC(C)S(=O)(=O)c1oc(-c2ccc(F)cc2)nc1S(=O)(=O)c1ccc(F)cc1 (stereo not drawn),-8.47%
23,Cc1cc(C)cc(NC(=O)C2CCN(c3nc4ccccc4nc3C(F)(F)F)CC2)c1,1.99%
24,CCOc1ccc(-n2nc3ccc(NC(=O)COc4ccccc4)cc3n2)cc1,-7.78%
25,O=C(N/N=C/c1cccs1)c1c[nH]c2ccccc12,active: 32.7%

row,SMILES,inhibition
1,Cc1ccc(OCCCCn2nnc3sc4c(c3c2=O)CCC(C)C4)cc1 (stereo not drawn),-6.55%
2,CCn1c(=N)c(C(=O)NC2CCCC2)cc2c(=O)n3cc(C)ccc3nc21,-22.2%
3,CCOC(=O)c1c(-c2ccccc2)oc2cc(Br)c(OCc3ccccc3)cc12,-7.45%
4,CCOc1ccc(C(=O)NCCc2csc(-c3cccnc3)n2)cc1,6.88%
5,CN1CCN(C2(CNC(=O)COc3ccc(C(C)(C)C)cc3)CCCCC2)CC1,1.35%
6,Cc1ccc(Cl)cc1Nc1nn2c(=O)c3ccc(C(=O)NC4CCC(C)CC4)cc3nc2s1 (stereo not drawn),-2.77%
7,O=C(Cn1c(=O)n(-c2ccc(F)c(Cl)c2)c(=O)c2sc3ccccc3c21)NC1CCCCC1,17.2%
8,COc1cccc(NC(=O)C2CCN(S(=O)(=O)c3c(C)noc3/C=C/c3cccs3)CC2)c1,2.66%
9,CCN1CCN(c2cc(C)c3cc(NC(=O)/C=C/c4ccc(OCCC(C)C)cc4)ccc3n2)CC1,2.45%
10,Cc1ccc(NC(=O)CSc2nc(C3CCCC3)nc3c2c(=O)n(C)c(=O)n3C)c(C)c1,-1.21%
11,O=C(CSc1nccn1-c1ccc(F)cc1)Nc1cccc2ccccc12,12.7%
12,COc1ccc(C(=O)Nc2cc(NC(=O)c3ccco3)ccc2OC)cc1Cl,-1.2%
13,CCc1nnc(SCc2nc(-c3cccc(C)c3)oc2C)c2cc3sc(C)cc3n12,2.59%
14,CC(=O)c1ccc(S(=O)(=O)N2CCn3cccc3C2c2ccc(F)c(F)c2)cc1 (stereo not drawn),-6.45%
15,CCc1cc(C(=O)NCc2ccc(F)cc2)no1,-25.4%
16,COc1ccc(CNc2ncnc3c2c(-c2ccccc2)cn3-c2cccc(C)c2)cc1,-20.9%
17,CC(C)Oc1ccc(CNC(=O)c2ccc3c(c2)N(C)C(=O)C2CCCCN32)cc1 (stereo not drawn),-3.84%
18,NC(=O)c1nsc(C(=O)N(CCCN2CCOCC2)C(C(=O)NC2CCCCC2)c2ccc(Cl)cc2)c1N (stereo not drawn),active: 30.5%
19,Cc1ccc(N2CC(NC(=O)C3CCCC3)CC2=O)cc1C (stereo not drawn),5.27%
20,COc1ccc(-c2nnc(SCC(=O)Oc3cc(C)ccc3C)o2)cc1,-21.4%
21,CSCCC(NC(=O)OC(C)(C)C)C(=O)Oc1ccc2c(=O)c(-c3ccc4c(c3)OCCO4)coc2c1 (stereo not drawn),active: 32.8%
22,CCOC(=O)c1cc2c(=O)n3ccccc3nc2n(CC2CCCO2)c1=NC(=O)c1ccc(F)cc1 (stereo not drawn),-1.24%
23,O=C(NCc1cccc(F)c1)c1ccc2nc(CCc3ccccc3)oc2c1,22.8%
24,CCOC(=O)N1CCc2c(sc(NCc3cccc(F)c3)c2C(=O)Nc2ccc(OCC)cc2)C1,8.59%
25,CSc1cccc(CN2CCN(CCC(C)C)C(CCO)C2)c1 (stereo not drawn),active: 58.8%

row,SMILES,inhibition
1,CCN(C(=O)c1cccn(Cc2cccc(Cl)c2)c1=O)c1ccccc1,17.9%
2,Cc1ccc(-c2nc(Cn3c(SCc4ccc(F)cc4)nc4cccnc43)c(C)o2)cc1,1.11%
3,COc1ccc(C(=O)Nc2nonc2-c2ccc(OC)c(OC)c2)cc1Cl,-13.8%
4,O=C(Nc1cccc(NC(=O)c2ccc(Br)cc2)c1)c1ccccc1,-11.5%
5,CCCn1c(NCc2ccccc2F)nc2ccccc21,-4.94%
6,CCCn1c2ccccc2c2cnn(CC(=O)NCCCN3CCN(c4ccccc4)CC3)c(=O)c21,active: 87.5%
7,COc1ccc2c(c1)CC(NC(=O)Nc1ccc(Br)c(C)c1)CO2 (stereo not drawn),-0.25%
8,CCC(=O)N1c2ccc(S(=O)(=O)CCC(=O)N3CCN(c4ccc(F)cc4)CC3)cc2CC1C (stereo not drawn),9.24%
9,Cc1ccc(OCc2cc(=O)n3cc(C)sc3n2)c(NC(=O)c2ccco2)c1,3.98%
10,O=C(Oc1ccc(Br)cc1)c1cccnc1,active: 38.5%
11,Cc1ccc(C)c(NC(=O)Cn2cc(S(=O)(=O)NC(C)C)c(S(=O)(=O)NC(C)C)c2)c1,-1.03%
12,COc1cc(C(=O)Nc2c(C(=O)Nc3ccccc3F)oc3ccccc23)cc(OC)c1OC,16%
13,CCOc1ccc(NC(=O)c2ccc3nc(C(C)C)oc3c2)cc1,-11.4%
14,CC(C)OCCCn1c(=S)[nH]c2cc3c(cc2c1=O)OCO3,active: 49.5%
15,COc1ccc(Cn2c(C(=O)O)c(CNCc3ccc(C)o3)c3ccc(OC)cc32)cc1,7.02%
16,CCc1cccc(NC(=O)Cn2nc(C)c3sc4ccccc4c3c2=O)c1,12.9%
17,Cc1ccc(C)c(CN2C(=O)CSc3ccc(C(=O)NCc4ccccc4)cc32)c1,-4.08%
18,[S-]C(=Nc1ccc(Cl)cc1)N[n+]1ccccc1,active: 61.9%
19,COc1ccccc1OC(C)C(=O)N1CCC(c2nc3ccccc3s2)CC1 (stereo not drawn),2.91%
20,COc1ccc(Cn2c(=O)c3ccccc3n3c(-c4ccc(C)cc4)nnc23)cc1,17%
21,Cc1ccc2c(c1)c(=O)c1ccccc1n2CCCC(=O)Nc1ccc(C)c(C)c1,-4.85%
22,CC(C)OC(=O)c1ccc(NC(=O)CSc2nc(-c3cccs3)cc(C(F)(F)F)n2)cc1,-1.11%
23,Cc1ccc(COC(=O)c2[nH]c3c(c2C)C(=O)CC(c2ccc(Cl)cc2)C3)cc1 (stereo not drawn),11.5%
